# Laboratory results published in PubChem BioAssay AID463173 (ICCB-Longwood Screening Facility, Harvard Medical School, 2010).
# About 1,700 (3.3%) of roughly 52,000 compounds were called active. Cut-off read from the data, not from the text of the source: active = survival mostly below about 52% (no sharp cut-off); inactive = mostly above about 56%. This is one part of the list.
# Tested on: Wild type
# Assay: growth inhibition of S. aureus wild type versus tarO mutant, primary screen, teichoic acid synthesis inhibitors, RN4220, OD600 (AID 463173)
# Settings: S. aureus RN4220 wild type/DeltatarO growth, OD600, 18 h, hits give low values, screened at 18.75 µg/mL (by protocol)
row,Compound,survival
1,CCc1ccc(NC(=O)N2CC=C(c3c[nH]c4ccccc34)CC2)cc1,inactive: 47%
2,CNC(=O)C1CCC(Cn2c(=O)c3sccc3n(Cc3ccccc3)c2=O)CC1 (stereo not drawn),inactive: 75%
3,Cc1csc2nc(COC(=O)c3ccccc3NC(=O)c3ccccc3Cl)cc(=O)n12,inactive: 74%
4,COc1ccccc1CCNC(=O)c1cc2c(=O)n3cccc(C)c3nc2n1C,inactive: 85%
5,COc1ccc(C(=O)NCC(c2cccnc2)N2CCc3ccccc3C2)cc1 (stereo not drawn),inactive: 81%
6,CCN(CC)c1ccc(NC(=O)CCS(=O)(=O)c2cccc3nsnc23)c(C)c1,inactive: 67%
7,CCOC(=O)c1[nH]c(C)c(CCC(=O)Nc2cc(Cl)ccc2C)c1C,inactive: 73%
8,Cc1ccc(CNC(=O)C2CCN(c3nn4cc(-c5ccc(F)cc5)nc4s3)CC2)cc1,inactive: 68%
9,FC(F)(F)Oc1ccc(-n2[nH]nnc2=S)cc1,inactive: 108%
10,CCSC1=NC2(CCN(C(=O)NC3CCCCC3)CC2)N=C1c1ccc(C)cc1,inactive: 86%
11,Cc1cc(S(=O)(=O)Nc2cc3c(cc2C)n(C)c(=O)c(=O)n3C)ccc1F,inactive: 71%
12,CN=c1sc2ccccc2n1CC(O)c1ccccc1 (stereo not drawn),inactive: 102%
13,Cc1cc(C)c2c(n1)nn1c(C)c(CCC(=O)Nc3ccc(C)c(Cl)c3)c(C)nc21,inactive: 95%
14,Cc1cn2c(=O)cc(COC(=O)c3cccc(NC(=O)C(C)Oc4ccccc4)c3)nc2s1 (stereo not drawn),inactive: 69%
15,CCOc1ccccc1NC(=O)c1c(NC(=O)C(C)Oc2cccc(Cl)c2)sc2c1CCCCC2 (stereo not drawn),inactive: 80%
16,Cc1ccccc1NC(=O)CSc1ncc2c(n1)-c1ccccc1N(C)S2(=O)=O,inactive: 99%
17,C1CCC2(C1)OCC1(CO2)COC2(CCCC2)OC1,inactive: 111%
18,CCc1cc2c(cc3c(=O)n(CC(=O)NCc4cccc(Cl)c4)nc(CC)n32)s1,inactive: 85%
19,CCC1=Nc2cc(C(=O)NCCc3ccccc3)ccc2Sc2ccc(Cl)cc21,inactive: 91%
20,CCn1c(Oc2ccc(F)cc2F)nc2c1c(=O)n(C)c(=O)n2C,inactive: 68%
21,CCOc1ccc(CC(=O)Nc2c(C(=O)c3ccc(Cl)cc3)oc3ccccc23)cc1OCC,inactive: 65%
22,CC1=C(C(=O)Nc2ccc(Cl)cc2)C(c2cccs2)n2nc(SCc3cccc(Cl)c3)nc2N1 (stereo not drawn),inactive: 95%

row,Compound,survival
1,Cc1cccc(S(=O)(=O)c2cn(Cc3ccccc3)c3cc(N4CCC(C)CC4)c(F)cc3c2=O)c1,inactive: 119%
2,COc1ccc(-n2nc3cc(C)c(NC(=O)COc4cccc(C)c4)cc3n2)cc1,inactive: 78%
3,COc1cccc(CNC(=O)C(=O)NCC(c2cccs2)S(=O)(=O)c2cccs2)c1 (stereo not drawn),inactive: 74%
4,COc1cccc(OCc2nc3ccccc3n2Cc2ccccc2)c1,inactive: 86%
5,COc1ccc(Nc2cc(C(=O)NCCCN(C)Cc3ccccc3)c3ccccc3n2)cc1OC,inactive: 120%
6,CN(C)S(=O)(=O)c1ccc(S(=O)(=O)N2CCN(C=O)CC2)cc1,inactive: 110%
7,CC1CCc2c(sc3nnn(CC(=O)Nc4cccc(C(F)(F)F)c4)c(=O)c23)C1 (stereo not drawn),inactive: 99%
8,O=C1C(=O)N(C2CCN(C(=O)c3ccc(F)cc3)CC2)CCN1Cc1ccc(F)cc1,inactive: 71%
9,CCOC(=O)C1CCN(C(=O)Cc2cccc3ccccc23)CC1,inactive: 103%
10,CCOc1ccc(NCc2cccn2-c2nnc(N3CCC(C(=O)NC(C)c4ccccc4)CC3)s2)cc1 (stereo not drawn),inactive: 79%
11,COc1ccc(-c2cc(C(F)(F)F)nc(NCc3ccccc3)n2)cc1OC,inactive: 66%
12,COc1cccc(CN2c3ccccc3-c3nc(SCC(=O)Nc4cccc(C)c4)ncc3S2(=O)=O)c1,inactive: 62%
13,CCc1ccc2oc(-c3cccc(NC(=O)c4ccc(-c5cccc([N+](=O)[O-])c5)o4)c3)nc2c1,inactive: 52%
14,CCOc1ccc(Br)cc1C1C(C(=O)Nc2ccccc2OC)=C(C)Nc2nnnn21 (stereo not drawn),inactive: 90%
15,Cc1cccc(OC(C)C(=O)N2CCC(c3nc4ccccc4o3)CC2)c1C (stereo not drawn),inactive: 74%
16,CCc1nnc2c3ccccc3nc(Nc3ccc(F)cc3C)n12,inactive: 64%
17,CCN1C(C(=O)c2ccccc2)=C(OC(=O)c2ccc(Cl)cc2)c2ccccc2S1(=O)=O,inactive: 77%
18,CCOc1cccc(NC(=O)CSc2ncc(-c3ccc(Cl)cc3)[nH]2)c1,inactive: 33%
19,Cc1ccc(C(=O)N/C(=C/c2ccco2)C(=O)Nc2nccs2)cc1,inactive: 81%
20,CCn1c(=O)c(=O)n(CC)c2cc(N3CCCCC3)c(NC(=O)c3cccc(OC)c3)cc21,inactive: 88%
21,COc1ccc(C2CC(=O)C(C=NC3CCCC3)=C(O)C2)cc1 (stereo not drawn),inactive: 105%
22,Cc1oc(-c2ccc(C(=O)N(C)Cc3ccccc3)cc2)nc1CN1CCc2ccccc21,inactive: 131%

row,Compound,survival
1,CCOC(=O)c1cccc(NC(=O)N2Cc3ccccc3Oc3ncccc32)c1,inactive: 81%
2,CC(=O)N1c2ccc(S(=O)(=O)NCCc3cccc(C)c3)cc2CC1C (stereo not drawn),inactive: 66%
3,COc1ccc(-n2c(=O)c3c4c(sc3n(Cc3ccccc3)c2=O)CCC4)c(OC)c1,inactive: 71%
4,Cc1ccc(NC(=O)CC2Sc3ccccc3NC2=O)c(C)c1 (stereo not drawn),inactive: 145%
5,CCCCN(CCCC)S(=O)(=O)c1ccc(NC(=O)c2c(-c3ccccc3)noc2C)cc1,inactive: 76%
6,CCN(C(=O)c1cc(S(=O)(=O)N2CCCCC2)c[nH]1)c1ccc(OC)cc1,inactive: 88%
7,Cc1cc(C)cc(OCCOCCn2c(-c3ccc(Cl)cc3)nc3ccccc3c2=O)c1,inactive: 39%
8,CN1CCC(OC(=O)Cc2ccc(Cl)cc2)CC1,inactive: 103%
9,C=Cc1ccc(CSc2nc(-c3ccc(Cl)cc3)nc3c2Cc2c(CO)cnc(C)c2O3)cc1,inactive: 85%
10,CCOc1ccc(-n2c(-c3ccc(OC)cc3)cc3c2CC(C)(C)CC3=O)cc1,inactive: 41%
11,Cc1ccc(C)c(Cn2cc(CCC(=O)NC3CCCCC3)c3ccccc32)c1,inactive: 86%
12,COc1cc(Cl)c(C)cc1NC(=O)CSCc1nc(-c2ccc(OC)c(OC)c2)no1,inactive: 73%
13,Cn1c(NCc2ccccc2F)nc2ccccc21,inactive: 104%
14,N=c1n(CCO)c2ccccc2n1CCOc1ccc(F)cc1,inactive: 75%
15,Cc1cccc(C)c1NC(=O)C1CCN(S(=O)(=O)c2cccc3nsnc23)CC1,inactive: 76%
16,CCC(=O)Nc1nc(-c2ccc3c(c2)CCN3C(C)=O)cs1,inactive: 114%
17,CC(=O)c1cccc(-n2c(CCC(=O)O)ccc2-c2ccccc2)c1,inactive: 81%
18,COc1ccc(OC)c(Nc2cc(C(=O)NCc3ccccc3)c3ccccc3n2)c1,inactive: 139%
19,CCOC(=O)C1CCN(C(=O)c2ccc3c(c2)sc2nc(-c4ccc(OCC)cc4)cn23)CC1,inactive: 86%
20,Cc1ccc(NC(=O)Cn2ccn(Cc3ccc(Cl)cc3)c(=O)c2=O)cc1C,inactive: 114%
21,COc1ccc(-c2nc(SCC(=O)NC3CCCC3)c(-c3ccccc3)[nH]2)cc1OC,inactive: 76%
22,O=C(N1CCCCC1)N1c2ccccc2C=Cc2ccccc21,inactive: 95%

row,Compound,survival
1,Cc1ccc(-n2ncc3c(Nc4ccc5c(c4)OCCO5)ncnc32)cc1C,inactive: 100%
2,CCOc1ccccc1C(=O)N1CCc2cc(OC)c(OC)cc2C1COc1ccc2c(C)cc(=O)oc2c1 (stereo not drawn),inactive: 76%
3,COc1ccc(/C=C(\NC(=O)c2ccccc2)C(=O)NC2CCCCC2)cc1,inactive: 93%
4,Cc1ccc(OCCSc2nc3ccccc3n2CCC(=O)O)cc1C,inactive: 63%
5,CCOc1ccc(NC(=O)NC(CC)Cn2nnc3ccccc3c2=O)cc1 (stereo not drawn),inactive: 121%
6,Cc1nc2ncnn2c(C)c1CCC(=O)NCc1ccc(Cl)cc1,inactive: 72%
7,O=C(CSc1ncc(S(=O)(=O)c2ccc(Br)cc2)c(=O)[nH]1)NCc1ccccc1Cl,inactive: 67%
8,CCN1CCN(C(c2ccc(Cl)cc2)c2c(O)cc(C)n(CCOC)c2=O)CC1 (stereo not drawn),inactive: 63%
9,COc1ccc(-c2cc(C(=O)Oc3ccc(Cl)cc3)c3ccccc3n2)cc1,inactive: 60%
10,CC(C)c1nnc(SCC(=O)NC(C)(C)C)n1C,inactive: 106%
11,Cc1ccc(N(CCO)S(=O)(=O)c2ccc(NC3=NS(=O)(=O)c4ccccc43)cc2)cc1,inactive: 106%
12,CCCCn1cnc2cc(NC(=O)c3cc(OC)c(OC)c(OC)c3)ccc21,inactive: 79%
13,Cc1cc(C)cc(N(CC(=O)Nc2ccc(C(F)(F)F)cc2)S(=O)(=O)c2c(C)[nH]c(=O)[nH]c2=O)c1,inactive: 66%
14,CCCC(=O)Nc1c(C(=O)N2CCN(c3ccccc3)CC2)oc2ccccc12,inactive: 82%
15,COc1ccc(CCNC(=O)c2cc3cccc4c3n2CC(C)S4)c(OC)c1OC (stereo not drawn),inactive: 71%
16,CC(C)c1ccc(S(=O)(=O)Nc2cc3c(cc2NCc2ccccc2)n(C)c(=O)n3C)cc1,inactive: 66%
17,CCC(=O)N1CCc2cc(S(=O)(=O)NC(Cc3ccccc3)C(=O)Nc3ccc(Cl)cc3)ccc21 (stereo not drawn),inactive: 76%
18,COc1ccccc1C(=O)N1CCC(c2c[nH]c3ccccc23)(c2c[nH]c3ccccc23)CC1,inactive: 96%
19,O=C(CSc1nc(-c2ccccc2)[nH]c1-c1ccc(F)cc1)NC1CCCC1,inactive: 77%
20,CC(C)(C)c1ccc(C(=O)Nc2ccc3nc(SCC(=O)N4CCCC4)sc3c2)cc1,inactive: 89%
21,CCOc1ccccc1NC(=O)Cn1c(=O)n(Cc2ccco2)c(=O)c2cccnc21,inactive: 67%
22,CCc1ccccc1NC(=O)C1=CC(c2ccc3c(c2)OCO3)=NS(=O)(=O)N1C,inactive: 78%
